# Measurements from patent US20220096510A1, “METHOD AND PHARMACOLOGICAL COMPOSITION FOR THE PREVENTION OF RECURRENT INFECTIONS CAUSED BY CLOSTRIDIUM DIFFICILE” (UNIVERSIDAD ANDRÉS BELLO, priority 2018, published 2022).
# Where two headings read alike, the source gives them in different places.
# Legend:
# [1] = test system: C. difficile spores in Caco-2 cells; format: cell-based, C. difficile strain R20291; settings: for spore internalization in vitro: Caco-2 and T84 cells, data not shown
# [2] = test system: C. difficile spores in T84 cells; format: cell-based, C. difficile strain R20291; settings: nystatin 30 μM
# C. difficile spores = format: in vivo, C57BL/6 mice
compound,measurement,setting,value
CN(C)CCCN1c2ccccc2Sc2ccc(Cl)cc21 [chlorpromazine],spore internalization in vitro,[1],capable of reducing spore internalization
COc1ccc2c(c1)c(CC(=O)O)c(C)n2C(=O)c1ccc(Cl)cc1 [indomethacin],spore internalization in vitro,[1],capable of reducing spore internalization
C[C@@H]1[C@H](O)[C@@H](C)/C=C/C=C/CC/C=C/C=C/C=C/C=C/C(O[C@H]2O[C@H](C)[C@@H](O)[C@H](N)[C@@H]2O)CC2O[C@](O)(CC(O)C(O)CCC(O)CC(O)CC(O)CC(=O)O[C@H]1C)CC(O)C2C(=O)O (stereo partly drawn) [nystatin],increase in spore adherence,[2],46%
same,reduction of spore entry in respect of the control,[2],60%
same,spore internalization in vitro,[1],capable of reducing spore internalization
same,adherence of spores,"[1]; Caco-2 cells, nystatin 6-30 μM",not affected
same,reduction of spore entry in respect of the control,"[1]; Caco-2 cells, nystatin 6-30 μM, 1 h preincubation, 3 h infection MOI 10, dependent on inhibitor concentration",up to 79%
same,"histological damage in cecum samples during R-CDI (cellular infiltration, edema, epithelial damage)","C. difficile spores; mouse, in vivo",does not reduce histological damage
same,"histological damage in colon samples during R-CDI (cellular infiltration, edema, epithelial damage)","C. difficile spores; mouse, in vivo",does not reduce histological damage
same,mice presenting diarrhea,"C. difficile spores; mouse, in vivo",50%
same,CFU in stools,"C. difficile spores; mouse, in vivo, po",elevated values
CN[C@H](CC(C)C)C(=O)N[C@H]1C(=O)N[C@@H](CC(N)=O)C(=O)N[C@H]2C(=O)N[C@H]3C(=O)N[C@H](C(=O)N[C@H](C(=O)O)c4cc(O)cc(O)c4-c4cc3ccc4O)[C@H](O)c3ccc(c(Cl)c3)Oc3cc2cc(c3O[C@@H]2O[C@H](CO)[C@@H](O)[C@H](O)[C@H]2O[C@H]2C[C@](C)(N)[C@H](O)[C@H](C)O2)Oc2ccc(cc2Cl)[C@H]1O [vancomycin],mice presenting diarrhea,"C. difficile spores; day 12, vancomycin 50 mg/kg, nystatin 8,500 IU/kg oral",80%
